{
  "source": "paper PMC4336329",
  "about": "(PLoS ONE, 2015)",
  "note": "Among all 310,000 compounds or so, about 2,200 (0.71%) showed an effect of 50% or more. The effect is printed as a negative number. This is one part of the list.",
  "data": [
    {"biological_target": "human ether-à-go-go-related gene (hERG) potassium channel (human, UniProt Q12809)", "sequence (Q12809 whole entry, looked up)": "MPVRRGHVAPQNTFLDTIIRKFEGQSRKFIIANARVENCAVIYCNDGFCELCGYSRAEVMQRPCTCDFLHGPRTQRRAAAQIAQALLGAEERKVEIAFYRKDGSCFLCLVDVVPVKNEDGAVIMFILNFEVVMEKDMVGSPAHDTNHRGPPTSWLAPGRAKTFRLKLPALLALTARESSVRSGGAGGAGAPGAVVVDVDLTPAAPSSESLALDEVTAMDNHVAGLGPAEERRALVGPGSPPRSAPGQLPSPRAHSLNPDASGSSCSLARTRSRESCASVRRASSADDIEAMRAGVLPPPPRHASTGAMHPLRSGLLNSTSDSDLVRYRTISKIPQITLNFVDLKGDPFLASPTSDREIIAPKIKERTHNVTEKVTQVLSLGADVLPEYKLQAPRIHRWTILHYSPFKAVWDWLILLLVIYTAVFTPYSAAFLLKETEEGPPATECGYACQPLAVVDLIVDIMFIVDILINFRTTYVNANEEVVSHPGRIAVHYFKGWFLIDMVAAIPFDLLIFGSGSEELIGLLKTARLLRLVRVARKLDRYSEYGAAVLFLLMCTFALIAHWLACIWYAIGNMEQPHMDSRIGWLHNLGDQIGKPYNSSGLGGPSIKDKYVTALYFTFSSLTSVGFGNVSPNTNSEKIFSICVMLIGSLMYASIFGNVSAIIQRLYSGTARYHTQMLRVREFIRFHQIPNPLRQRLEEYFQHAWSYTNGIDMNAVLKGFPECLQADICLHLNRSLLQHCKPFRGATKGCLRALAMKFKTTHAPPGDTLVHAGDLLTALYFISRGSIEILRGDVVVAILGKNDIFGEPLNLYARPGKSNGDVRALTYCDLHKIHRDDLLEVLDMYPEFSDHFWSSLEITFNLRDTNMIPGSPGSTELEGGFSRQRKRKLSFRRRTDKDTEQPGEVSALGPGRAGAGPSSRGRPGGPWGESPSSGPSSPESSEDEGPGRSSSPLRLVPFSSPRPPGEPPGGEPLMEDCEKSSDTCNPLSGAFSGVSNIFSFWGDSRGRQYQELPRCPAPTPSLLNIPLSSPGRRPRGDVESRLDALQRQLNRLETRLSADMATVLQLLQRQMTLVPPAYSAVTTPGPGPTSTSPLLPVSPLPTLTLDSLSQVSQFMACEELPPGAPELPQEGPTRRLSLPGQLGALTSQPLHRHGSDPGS", "experiment": "primary screen, population patch clamp on CHO cells stably expressing hERG", "units": {"hERG current change (%, negative = inhibition) at 1uM": "%"}, "values": [
      {"compound": "Cc1c(Cl)cccc1Nc1nc(N)nc(CN2CCc3ccccc3C2)n1", "hERG current change (%, negative = inhibition) at 1uM": 1.02},
      {"compound": "O=C1C2C(C(=O)N1/N=C/c1cc(Br)cc([N+](=O)[O-])c1O)C1C=CC2C12CC2", "note": "(stereo not drawn)", "hERG current change (%, negative = inhibition) at 1uM": 10.3},
      {"compound": "CC(C)CCOCc1nc2sc3c(c2c(=O)[nH]1)CCC(C)C3", "note": "(stereo not drawn)", "hERG current change (%, negative = inhibition) at 1uM": 1.63},
      {"compound": "CCn1cnc2c1c(=O)n(CC(=O)Nc1ccc3c(c1)OC(F)(F)O3)c(=O)n2Cc1ccccc1", "hERG current change (%, negative = inhibition) at 1uM": -5.09},
      {"compound": "O=C(COC(=O)Cc1ccc(Cl)cc1)Nc1ccc(OC(F)F)cc1", "hERG current change (%, negative = inhibition) at 1uM": 6.61},
      {"compound": "Cc1ccccc1OCC(=O)Nc1cccc(S(=O)(=O)NC2=NCCC2)c1", "hERG current change (%, negative = inhibition) at 1uM": -0.486},
      {"compound": "COc1ccc(C2CCCN2C(=O)c2cccs2)cc1", "note": "(stereo not drawn)", "hERG current change (%, negative = inhibition) at 1uM": 12.4},
      {"compound": "COc1ccc(OC)c(NC(=O)COC(=O)c2n[nH]c3ccccc23)c1", "hERG current change (%, negative = inhibition) at 1uM": 12.6},
      {"compound": "Cc1nn(C)cc1/C=N/NC(=O)c1ccco1", "hERG current change (%, negative = inhibition) at 1uM": 7.66},
      {"compound": "CC(/C=C/c1ccc(N(C)C)cc1)=N/N=C1/NC(=O)CC(C(=O)Nc2ccc(Cl)cc2)S1", "note": "(stereo not drawn)", "hERG current change (%, negative = inhibition) at 1uM": 6.42},
      {"compound": "CC(=O)Oc1ccccc1N(C(C)=O)S(=O)(=O)c1ccc2ccccc2c1", "hERG current change (%, negative = inhibition) at 1uM": 17.1},
      {"compound": "CN1CCN(C(=S)Nc2ccc([N+](=O)[O-])cc2)CC1", "hERG current change (%, negative = inhibition) at 1uM": 1.7},
      {"compound": "Nc1nc(SCC(=O)N2CCCCCC2)[nH]c(=O)c1NC(=O)c1ccco1", "hERG current change (%, negative = inhibition) at 1uM": 12.6},
      {"compound": "CCOC(=O)C1CCN(/C=C2\\C(=O)NC(=S)N(CC)C2=O)CC1", "hERG current change (%, negative = inhibition) at 1uM": 6.14},
      {"compound": "Cc1ccc(CNS(=O)(=O)c2c(C)[nH]c(C)c2C(=O)N2CCCCC2)o1", "hERG current change (%, negative = inhibition) at 1uM": 10},
      {"compound": "O=C(Cn1c(=O)cnc2ccccc21)NNC(=O)c1ccccc1Cl", "hERG current change (%, negative = inhibition) at 1uM": 13.3},
      {"compound": "S=c1nc(-c2csc3c2CCCC3)[nH][nH]1", "hERG current change (%, negative = inhibition) at 1uM": 20.6},
      {"compound": "Cc1cc(C)n(Cc2ccc(C(=O)NN)o2)n1", "hERG current change (%, negative = inhibition) at 1uM": 10.4},
      {"compound": "CCn1ccnc1CN(C)C(=O)CCc1nnc(CCC2CCCCC2)o1", "hERG current change (%, negative = inhibition) at 1uM": -5.97},
      {"compound": "COC(=O)C1=C(c2cccc(OC)c2OC)C[C@@H]2CC[C@H]1N2C(=O)NC1CC1", "hERG current change (%, negative = inhibition) at 1uM": 15.4},
      {"compound": "Cc1ccc(NC(=O)CCCCCC2NC(=O)NC2C)cc1", "note": "(stereo not drawn)", "hERG current change (%, negative = inhibition) at 1uM": -0.122},
      {"compound": "CCOc1ccc(S(=O)(=O)N(CC(=O)Nc2cccnc2)c2ccc(F)cc2)cc1", "hERG current change (%, negative = inhibition) at 1uM": 7.51},
      {"compound": "CCCC1=C(C(=O)OCC)C(c2cc(Cl)cc(OC)c2OCC(=O)OCC)NC(=O)N1", "note": "(stereo not drawn)", "hERG current change (%, negative = inhibition) at 1uM": 13.8},
      {"compound": "Cc1noc(C)c1C(=O)OC(C(=O)NC1CCCC1)c1ccc(F)cc1", "note": "(stereo not drawn)", "hERG current change (%, negative = inhibition) at 1uM": 12.5}
    ]}
  ]
}
